Measured values published in the supplement of paper PMC7125110.
± gives the standard error. Variants at the background level are over-represented here.

B1: glmS ribozyme (parent)
chain: AUAAAAGCGCCAGAACUACAGAAAUGUAGUUGACGAGGAGGAGGUUUAUCGAAUUUUCGGCGGAUGCCUCCAAA

Key:
Details in all cases: with glucosamine-6-phosphate
[1] = variants of: B1; test: self-cleavage kobs at 40 uM GlcN6P; higher = faster cleavage; RNA array
How it was run: (§1)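 Sequenced MiSeq chips were the platform: E. coli RNA polymerase transcribed barcoded ribozyme variants on them in situ, and a hybridised Cy3 probe tracked these at 37 °C. After glucosamine-6-phosphate (40 μM to 10 mM) in HEPES/KCl/Mg(OAc)2 buffer was flowed in, tiles were imaged over ~14 h. Signals normalised to baseline and to non-cleaving reference variants were reduced to per-tile medians and fit to one- or two-exponential decays to obtain kobs. kcat and KM were derived through weighted Michaelis–Menten fits across concentrations.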

[2] = variants of: B1; test: self-cleavage kobs at 640 uM GlcN6P; higher = faster cleavage; RNA array
How it was run: as §1

[3] = variants of: B1; test: self-cleavage kobs at 160 uM GlcN6P; higher = faster cleavage; RNA array
How it was run: as §1

[4] = variants of: B1; test: self-cleavage kobs at 2500 uM GlcN6P; higher = faster cleavage; RNA array
How it was run: as §1

[5] = variants of: B1; test: self-cleavage kobs at 10000 uM GlcN6P; higher = faster cleavage; RNA array
How it was run: as §1

Row | Variant | self-cleavage kobs at 40 uM GlcN6P [1] | self-cleavage kobs at 640 uM GlcN6P [2] | self-cleavage kobs at 160 uM GlcN6P [3] | self-cleavage kobs at 2500 uM GlcN6P [4] | self-cleavage kobs at 10000 uM GlcN6P [5]
1 | A15C G40A | 2.42e-05 ± 9.8e-06 s⁻¹ | – | – | – | –
2 | A15C G41A A42U C71G | < 1e-05 s⁻¹ | – | – | – | –
3 | A15C G43A | < 1e-05 s⁻¹ | < 1e-05 s⁻¹ | < 1e-05 s⁻¹ | – | –
4 | A15C G44C | < 1e-05 s⁻¹ | < 1e-05 s⁻¹ | < 1e-05 s⁻¹ | – | –
5 | A15C G62C | < 1e-05 s⁻¹ | < 1e-05 s⁻¹ | < 1e-05 s⁻¹ | < 1e-05 s⁻¹ | < 1e-05 s⁻¹
6 | A15C G62U | < 1e-05 s⁻¹ | – | – | < 1e-05 s⁻¹ | < 1e-05 s⁻¹
7 | A15C G63A | < 1e-05 s⁻¹ | < 1e-05 s⁻¹ | – | – | < 1e-05 s⁻¹
8 | A15C U30A A42U G63U | < 1e-05 s⁻¹ | – | – | – | –
9 | A15C U31A | 0.000156 ± 2.2e-05 s⁻¹ | 0.0015 ± 0.00035 s⁻¹ | 0.000607 ± 0.00013 s⁻¹ | 0.00303 ± 0.00078 s⁻¹ | 0.0067 ± 0.001 s⁻¹
10 | A15C U31C A42C C50U | < 1e-05 s⁻¹ | – | – | – | –
11 | A15C U47A | 0.000116 ± 1.4e-05 s⁻¹ | 0.000773 ± 0.00011 s⁻¹ | 0.000266 ± 5.3e-05 s⁻¹ | 0.00226 ± 0.00034 s⁻¹ | 0.00367 ± 0.00044 s⁻¹
12 | A15C U47G G51A U56C | < 1e-05 s⁻¹ | – | – | < 1e-05 s⁻¹ | < 1e-05 s⁻¹
13 | A15C U54A | 0.000164 ± 2.4e-05 s⁻¹ | 0.0012 ± 0.00025 s⁻¹ | 0.000559 ± 0.00011 s⁻¹ | – | –
14 | A15G A33G G41C U57C U65G C70U | < 1e-05 s⁻¹ | < 1e-05 s⁻¹ | < 1e-05 s⁻¹ | < 1e-05 s⁻¹ | –
15 | A15G A36G G44U | < 1e-05 s⁻¹ | – | – | – | –
16 | A15G A39C C61U G63C C68G | < 1e-05 s⁻¹ | < 1e-05 s⁻¹ | – | – | –
17 | A15G A42C G51C G60U C67A C68U | < 1e-05 s⁻¹ | – | – | – | –
18 | A15G A42G G66C | < 1e-05 s⁻¹ | – | – | – | –
19 | A15G A52C U55C | < 1e-05 s⁻¹ | – | – | – | –
20 | A15G A52C U57G A64C C68A | < 1e-05 s⁻¹ | – | – | – | –
21 | A15G C16G | 9.12e-05 ± 2.2e-05 s⁻¹ | 0.0011 ± 0.00023 s⁻¹ | 0.000213 ± 6.8e-05 s⁻¹ | 0.00326 ± 0.00063 s⁻¹ | 0.00391 ± 0.00059 s⁻¹
22 | A15G C16G G59A C61G | < 1e-05 s⁻¹ | – | – | – | < 1e-05 s⁻¹
23 | A15G C67U | 0.000329 ± 5.2e-05 s⁻¹ | 0.00169 ± 0.00028 s⁻¹ | 0.000674 ± 0.00013 s⁻¹ | 0.00538 ± 0.0014 s⁻¹ | 0.00828 ± 0.0017 s⁻¹
24 | A15G C71G | 0.000107 ± 1.2e-05 s⁻¹ | 0.00066 ± 8.8e-05 s⁻¹ | 0.000256 ± 4.1e-05 s⁻¹ | 0.00214 ± 0.00045 s⁻¹ | –
